Laboratory results reported in patent US10603282B2 (Merck Sharp & Dohme Corp., priority 2015, dated 2020).

Assay: Physical stability (crystallization) of amorphous doravirine on open storage
Conditions: open container at 5° C./ambient RH, 30° C./65% RH, 40° C./75% RH, and 60° C./ambient RH

With `Cn1c(Cn2ccc(C(F)(F)F)c(Oc3cc(Cl)cc(C#N)c3)c2=O)n[nH]c1=O` [Neat amorphous doravirine, 3-chloro-5-({1-[(4-methyl-5-oxo-4,5-dihydro-1H-1,2,4-triazol-3-yl)methyl]-2-oxo-4-(trifluoromethyl)-1,2-dihydropyridin-3-yl}oxy)benzonitrile] the time to crystallization was no more than 2 weeks.
